According to PubChem BioAssay AID1656 (Sanford-Burnham Center for Chemical Genomics, 2009):
The other results are listed elsewhere or left out. The main result of the screen is listed elsewhere. These columns were measured beside it and carry no call. Most of these compounds were active or inconclusive in the main read-out, so they are no random draw.

Test: oleate-induced lipid droplet accumulation in AML12 cells – imaging, high-throughput imaging, BODIPY stain, primary screen (AID 1656);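 further: cells counted across two imaged fields per well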
Conditions: AML12 mouse hepatocytes, oleate lipid droplets, measured here: cell count, cytotoxicity flag, at 6.5 µM
How it was run: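 Technique: fluorescence imaging, 20x objective, two fields per well / Assay system: AML12 hepatocytes (mouse) / Measure: % inhibition of lipid droplet signal / Doses: 6.5 µM single-point dosing / Incubation: overnight exposure / Reagent: 100 µM oleic acid challenge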

Compound | cell count [cells]
Nn1c(SCC(=O)Nc2nc3ccccc3s2)nncc1=O | 277
O=C1CN(C(=O)Cn2ncc(Cl)c(Cl)c2=O)c2ccccc2N1 | 321
O=Nc1c(-c2c(O)[nH]c3cc(Br)ccc23)[nH]c2ccccc12 | 822
CCOC(=O)C(NC(=O)c1cccc(Cl)c1)(OCc1ccccc1)C(F)(F)F (stereo not given) | 655
COc1ccc(C)cc1S(=O)(=O)N(CC(=O)O)c1ccc(C)cc1 | 846
O=[N+]([O-])c1cc(Cl)ccc1NCCNc1ncc(C(F)(F)F)cc1Cl | 710
COc1cc(/C=N/NC(=O)c2ccc3ccccc3c2)ccc1Oc1ccc([N+](=O)[O-])cn1 | 640
CCOC(=O)c1ccc(S(=O)(=O)NCC(c2ccc(N(C)C)cc2)c2c[nH]c3ccccc23)cc1 (stereo not given) | 605
O=C(Nc1nc(-c2ccc(Cl)cc2Cl)cs1)C1CCCO1 (stereo not given) | 631
CC1CC(C)CN(C(=O)c2ccc3c(c2NCCO)C(=O)c2ccccc2C3=O)C1 (stereo not given) | 737
O=[N+]([O-])c1ccccc1N/N=C\c1ccccc1Cl | 669
COc1cccc(-c2cn(-c3cccc(C(F)(F)F)c3)c(=S)[nH]2)c1 | 709
CCSC(=O)N(CC)CC(=O)Nc1c(CC)cccc1CC | 668
Cc1sc(NC(=S)NC(=O)CCc2ccccc2)c(C(N)=O)c1C | 214
O=C(Nc1cccc(Br)c1)c1cccc(OC(=S)N2CCOCC2)c1 | 692
CC1(C)Oc2ccc3ccc(=O)oc3c2/C(=C/Nc2ccc(O)cc2)C1=O | 702
Cc1ccc(NC(=S)N/N=C/c2c(Cl)cccc2Cl)c(C)c1 | 207
CCOC(=O)c1[nH]c2c(c1C)C(=O)CC(c1ccco1)C2 (stereo not given) | 129
Cc1[nH]n(-c2ccccc2)c(=O)c1N=Nc1ccc(Cl)cc1 | 842
COC(=O)Cn1c(O)c(N=NC(=O)CNC(=O)COc2cccc(C)c2)c2ccccc21 | 707
Cc1ccc(C2/C(=C(/O)c3cnn(-c4ccccc4)c3C)C(=O)C(=O)N2CCCN2CCOCC2)o1 (stereo not given) | 685
CCN1C(=O)/C(=C/c2ccc(N3CCCC3)cc2)NC1=S | 676
COc1cccc(CNC(=O)CCNC(=O)C2CCN(S(=O)(=O)c3ccccc3)CC2)c1 | 672
CCOC(=O)C(C)Oc1cccc2c(=O)n(CC(=O)NCc3ccco3)ccc12 (stereo not given) | 120
COc1cc(C(=O)N/N=C/c2cc([N+](=O)[O-])cs2)cc(OC)c1OC | 261

Compound | cell count [cells]
Cc1cc(C)cc(NC(=O)CSc2nc3[nH]ncc3c(=O)[nH]2)c1 | 274
COc1ccc(-c2csc(NC(=O)c3ccc(OCC(=O)N4CCOCC4)c(OC)c3)n2)cc1OC | 650
CC/C(=N/Nc1ccccc1Cl)c1cnnc(-c2ccccc2)n1 | 767
Oc1ccc2ccccc2c1N=Nc1ccccc1F | 782
COc1ccc2c(c1)c(CC(=O)Nc1ccc(C)cc1)c(C)n2C(=O)c1ccc(Cl)cc1 | 762
CN(C)S(=O)(=O)c1ccc(C(=O)Nc2nnc(SCc3cccc4ccccc34)s2)cc1 | 172
Cc1cccc(N(C)S(=O)(=O)c2ccc(-c3cnc(C4CC4)o3)cc2)c1 | 175
CCc1c(C#N)c(SCCC(=O)Nc2ccc(OC)cc2)nc2c1C(=O)CC(C)(C)C2 | 737
COc1ccc(N=C/C=C2/C=C(c3ccccc3)OC(C)(C)O2)cc1 | 739
CCOc1ccc(CCNC(=O)CCS(=O)(=O)c2ccc(OC)cc2)cc1OCC | 700
COc1ccc(-c2nc3c(c4nnc(SC(C)C(=O)Nc5ccccc5)n24)COC(C)(C)C3)cc1 (stereo not given) | 732
CCC(NC(=O)c1cc(COc2cncc(Cl)c2)on1)c1ccncc1 (stereo not given) | 739
CCOc1ccc(CCNC(=O)CSCc2ccc(C)cc2)cc1OCC | 717
NC(=O)N/N=C\c1cc(Br)ccc1O | 226
CC(/C=N/NC(=O)c1cc(-c2ccncc2)nc2ccccc12)=C\c1ccco1 | 193
CCCCCOc1ccc(Br)cc1/C(C)=N/NC1=NCCN1 | 99
C=CCC(=O)N1CCC(n2nccc2NC(=O)CCOc2ccccc2)CC1 | 695
COc1ccc(C)cc1NC(=O)CCC(=O)Nc1ccc2nc(N3CCN(C)CC3)cc(C)c2c1 | 699
CCN(CC)c1ccc(NC(=O)CCc2nnc3ccc(N4CCCC4)nn23)c(C)c1 | 843
CCCOc1ccccc1C(=O)N(Cc1ccc(C)o1)C1CCS(=O)(=O)C1 (stereo not given) | 720
CCOC(=O)C(NC(=O)c1ccccc1)(OCc1ccccc1)C(F)(F)F (stereo not given) | 630
O=C1CSC(c2cn(-c3ccccc3)nc2-c2ccccc2)N1Cc1ccco1 (stereo not given) | 671
Nc1nc(-c2ccccc2)c(N=Nc2ccccc2Cl)s1 | 462
CCCCn1c(=O)[nH]c(=O)c2c1nc(-c1ccc(-c3ccccc3)cc1)n2C | 817
CC(=O)Nc1ccc(-c2csc(NC(=O)Cc3ccccc3F)n2)cc1 | 791

Compound | cell count [cells]
CCc1ccc(NC(=O)C(C)OC(=O)c2ccc(N3CCCC3)c([N+](=O)[O-])c2)cc1 (stereo not given) | 674
O=C(Nc1ccc([N+](=O)[O-])cn1)c1cc(-c2cccc(Br)c2)nc2ccccc12 | 648
Cn1nc(C(F)(F)F)c(-c2cccc(C(F)(F)F)c2)c1NC(=O)Nc1ccc(F)cc1 | 744
Cc1cc(Cl)n2c(nc3ccccc32)c1C#N | 163
CCOc1ccc(C(=O)NC(C(=O)NCCc2ccc(S(N)(=O)=O)cc2)C(C)C)cc1 (stereo not given) | 56
COc1ccc(C(=O)c2cc([N+](=O)[O-])ccc2N2CCOCC2)cc1 | 73
CC(C)(C)c1ccc(-c2nnc(SCC(=O)Nc3sc4c(c3C#N)CCCC4)o2)cc1 | 651
CC1(OC(=O)CCc2ccccc2)C(=O)C=C2C=C(c3ccc(C#N)cc3)N(CCc3c[nH]c4ccccc34)C=C2C1=O (stereo not given) | 772
O=C(NC(=S)Nc1ccccn1)c1ccc(-c2ccccc2)cc1 | 884
CCOc1ccc(CCNC(=O)CSc2cc(=O)n(C)c3ccccc23)cc1OCC | 597
CCc1nn2c(N3CCOCC3)cc(C)nc2c1-c1ccc(F)cc1 | 729
COc1ccc(CNC(=O)C2CCCN(C(=O)Nc3ccccc3OC)C2)cc1 (stereo not given) | 730
Cc1[nH]n(-c2ccccc2)c(=O)c1N=Nc1ccc(C(=O)O)cc1 | 793
N/C(=N/O)c1nc(N2CCCC2)nc(N(c2ccccc2)c2ccccc2)n1 | 598
Cc1ccc(C)c(-n2c3nc(=O)[nH]c(=O)c-3cc3cc([N+](=O)[O-])ccc32)c1 | 101
COc1ccc(-c2nc(NC(=O)Cn3ccc(C(F)(F)F)n3)sc2C)cc1 | 759
Oc1c(/C=C/C=C/C=Nc2ccccc2)sc(=S)n1Cc1ccccc1 | 650
COc1cc2c(cc1NC(=O)CSc1nc3ccc(C)cc3[nH]1)oc1ccccc12 | 648
CC(C)Oc1ccccc1/C=N/Nc1ccccc1[N+](=O)[O-] | 607
CN(C)S(=O)(=O)c1ccc(C(=O)Nc2nnc(SCc3ccccc3)s2)cc1 | 144
COc1cc(C(=O)N2CCN(c3cccc(C)c3C)CC2)cc(OC)c1OC | 232
CCOC(=O)c1c(C)[nH]c(C(=O)N/N=C/c2ccc(Br)cc2)c1C | 72
O=C(c1nn2c(C(F)(F)F)cc(-c3cccs3)nc2c1Br)N1CCCc2ccccc21 | 651
CC1=C(/C=N/Nc2ccc([N+](=O)[O-])cc2[N+](=O)[O-])C(C)(C)CCC1 | 651
N#Cc1c(NC(=O)/C=C/c2ccco2)sc2c1CCCC2 | 51

Compound | cell count [cells]
Cc1ccc(C(=O)N2CCN(S(=O)(=O)N3CCCCC3)CC2)cc1 | 56
COc1ccc(C)cc1NC(=O)C(Sc1nnc(Nc2cc(C)ccc2OC)s1)c1ccccc1 (stereo not given) | 660
COc1ccc(C2=NOC(C(=O)NCc3ccc(F)cc3)C2)cc1OC (stereo not given) | 276
COc1cccc(C(=O)NC2CCCc3c2cnn3-c2cc(C)cc(C)c2)c1 (stereo not given) | 712
C=CCOc1ccc(/C=N/NC(=O)c2cc3c(OC)cc(OC)cc3[nH]2)cc1 | 829
O=C(OCCN1C(=O)c2cccc3c(N4CCOCC4)ccc(c23)C1=O)c1ccc(Cl)cc1 | 173
COc1ccc(CC(=O)Nc2oc(-c3ccccc3)c(-c3ccccc3)c2C#N)cc1OC | 768
CCc1cc2c(=O)c(-c3nc4ccccc4n3C)c(C)oc2c(CN2CCOCC2)c1O | 724
CCN(CC)S(=O)(=O)c1cc(NC(=O)C(C)OC(=O)c2[nH]c(C)c(C(C)=O)c2C)ccc1C (stereo not given) | 544
CCOc1cc(Br)c(CC(=O)NC2CCCCCC2)cc1OCC | 804
Cc1coc2cc3oc(=O)cc(C)c3cc12 | 661
CCCCn1c(SCC(=O)Nc2cc(C(F)(F)F)cc(C(F)(F)F)c2)nnc1C(CC)N(C)C (stereo not given) | 608
COc1ccc(CCN2C(=O)CC(N3CCOCC3)C2=O)cc1OC (stereo not given) | 716
Cc1ccc(C(C(=O)NC2CCCCC2)N(C(=O)c2csnn2)C2CCCC2)o1 (stereo not given) | 746
CCN1/C(=C/C=C/c2oc3ccc(-c4ccccc4)cc3[n+]2CC)Oc2ccc(-c3ccccc3)cc21 | 557
Cc1c(C(=O)OCc2ccccc2)[nH]c2c1C(=O)CC(c1ccco1)C2 (stereo not given) | 229
Cc1c(Cc2ccccc2)sc(/N=C/c2ccc3ccccc3c2)c1C(N)=O | 288
COc1ccccc1Nc1nnc(SCC(=O)Nc2nc(-c3ccc(F)cc3)cs2)s1 | 704
CCCCNC(=O)C1CCN(C(=O)Nc2ccc(C)cc2)CC1 | 730
CCOc1ccc(C(=O)OCC(=O)Nc2cc(C)on2)cc1OCC | 768
C=C(C)C(=O)N1CC2(CC(c3cccc(NC(=O)/C=C\C=C/C)c3)=NO2)C[C@H]1C(N)=O (stereo not given in full) | 762
O=C(Cc1coc2ccc3ccccc3c12)NC1CCCc2ccccc21 (stereo not given) | 610
Cc1ccc(OCC(=O)NCc2ccc3c(c2)OCO3)c([N+](=O)[O-])n1 | 695
Cc1ccc(NC(=O)CCCc2c[nH]c3ccccc23)nc1 | 843
CN(C)S(=O)(=O)c1ccc(N2CCCC2)c(C(=O)Nc2nc(-c3ccc(F)cc3)cs2)c1 | 280
